At least one read-out could not be matched to a standard name with certainty.
Test: Photochromic properties of lens samples (2 mm, compound in matrix I or II) exposed to UV radiation from a xenon lamp
Assay type: physicochemical
Details: lens sample
Source text: The matrix used in accordance with the present invention may be one of two types :
A homopolymer of the monomer DIACRYL 121 (D121 : tetraethoxylated Bisphenol A dimethylmethacrylate), marketed by Akzo Nobel; or
A copolymer comprised of a 50/50 mixture by weight of D121 (as above) and polyethylene glycol dimethacrylate (Molecular weight = 400) (PEGDMA 400).
10^-5 moles of at least one compound of the invention, together with 0.2% by weight of AMBN (2,2'-azobis(2-methylbutyronitrile)) provided by Akzo, are added to 10 g of formulations able to generate cross-linked matrix I or II. The formulations thus prepared are then poured into a lens mould of 2 mm thickness and then cured by heating at 60°C for 6 hours, followed by heating at 80°C for 2 hours to give a lens sample.
The photochromic properties of the lens samples thus obtained were then evaluated as follows :
Said lens sample, containing said photochromic compounds in its mass, is exposed to a UV radiation (source: xenon lamp).
Bleu D: 1,3-dihydro-1,3,3,5,6-pentamethylspiro[2H-indole-2'3'-[3H]-naphth-[2,1-b][1,4]oxazine] supplied by Great Lakes. T0 : the transmission before exposure to UV TD15 : the transmission after 15 minutes' exposure to UV OID : optical induced density (D∞-D0) [D∞ is the density after exposure, D0 the density before exposure] t1/2 : time of half-darkness which characterises the kinetics of the return to the initial state when at the equilibrium the exposure is cut off. λmax : the maximum absorption in the visible spectrum after UV irradiation.

[1] = Matrix I (homopolymer of DIACRYL 121)
[2] = Matrix II (50/50 D121 / PEGDMA 400 copolymer)

## CN1c2ccccc2C(C)(C)C12C=Nc1c(ccc3ccccc13)O2 (centres unmarked) [Control I, 1,3-dihydro-1,3,3-trimethylspiro[2H-indole-2,3'-[3H]-naphth[2,1-b][1,4]oxazine], reference compound]
[1]
  t1/2 (time of half-darkness, kinetics of the return to the initial state): 36 s
[2]
  t1/2 (time of half-darkness, kinetics of the return to the initial state): 4 s

## Cc1cc2c(cc1C)C(C)(C)C1(C=Nc3c(ccc4ccccc34)O1)N2C (centres unmarked) [Control II, 1,3-dihydro-1,3,3,5,6-pentamethylspiro[2H-indole-2'3'-[3H]-naphth-[2,1-b][1,4]oxazine], reference compound]
[1]
  t1/2 (time of half-darkness, kinetics of the return to the initial state): 36 s
[2]
  t1/2 (time of half-darkness, kinetics of the return to the initial state): 8 s

## CN1c2ccccc2C(C)(C)C12C=Nc1c(c(C(=O)N3CCOCC3)cc3ccccc13)O2 (centres unmarked) [Example 1, 1,3-dihydro-1,3,3-trimethyl-5'-morpholinocarbonylspiro[2H-indole-2,3'-[3H]-naphtho[2,1-b][1,4]oxazine]]
[2]
  t1/2 (time of half-darkness, kinetics of the return to the initial state): 34 s

## CN1c2ccccc2C(C)(C)C12C=Nc1c(c(C(=O)N3CCCCC3)cc3ccccc13)O2 (centres unmarked) [Example 2, 1,3-dihydro-1,3,3-trimethyl-5'-piperidinocarbonylspiro[2H-indole-2,3'-[3H]-naphtho[2,1-b][1,4]oxazine]]
[1]
  t1/2 (time of half-darkness, kinetics of the return to the initial state): 140 s

## Cc1ccc(NC(=O)c2cc3ccccc3c3c2OC2(C=N3)N(C)c3ccccc3C2(C)C)cc1 (centres unmarked) [Example 3, 1,3-dihydro-1,3,3-trimethyl-5'-p-(tolylcarbamoyl)spiro[2H-indole-2,3'-[3H]-naphtho[2,1-b][1,4]oxazine]]
[1]
  t1/2 (time of half-darkness, kinetics of the return to the initial state): 183 s

## CN1c2ccccc2C(C)(C)C12C=Nc1c(c(C(=O)N3CCc4ccccc43)cc3ccccc13)O2 (centres unmarked) [Example 4, 1,3-dihydro-1,3,3-trimethyl-5'-indolinocarbonylspiro[2H-indole-2,3'-[3H]-naphtho[2,1-b][1,4]oxazine]]
[1]
  t1/2 (time of half-darkness, kinetics of the return to the initial state): 174 s
[2]
  t1/2 (time of half-darkness, kinetics of the return to the initial state): 76 s

## COc1ccc2c(c1)C(C)(C)C1(C=Nc3c(c(C(=O)N4CCCCC4)cc4ccccc34)O1)N2C (centres unmarked) [Example 6, 1,3-dihydro-5-methoxy-1,3,3-trimethyl-5'-piperidinocarbonylspiro[2H]-indole-2,3'-[3H]naphth[2,1-b][1,4]oxazine]
[2]
  t1/2 (time of half-darkness, kinetics of the return to the initial state): 68 s

## CC(C)CN1c2ccccc2C(C)(C)C12C=Nc1c(c(C(=O)N3CCCCC3)cc3ccccc13)O2 (centres unmarked) [Example 7, 1,3-dihydro-1-(2'-methylpropyl)-3,3-dimethyl-5'-piperidinocarbonylspiro[2H-indole-2,3'-[3H]-naphtho[2,1-b] [1,4]oxazine]]
[2]
  t1/2 (time of half-darkness, kinetics of the return to the initial state): 31 s

— patent EP1044978A2, “1-N-alkyl-5'-[(N'-(un)substituted)amido]spiroindolinonaphthoxazines, their preparation, compositions and (co)polymer matrices containing them” (Corning S.A., priority 1999, dated 2000)
